Laboratory results: the supplement of paper PMC8728848
The other results are listed elsewhere or left out.

Tests used:
Assay in all cases: glycan array binding signal (z-score within array); higher = stronger binding
Details in all cases: glycan notation: IUPAC condensed, linker removed
[1] = biological target: GlcNAc(b1-2)Gal(b1-3)GalNAc
Outline: (§1)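 Glycan array data came from 3228 arrays in the Consortium for Functional Glycomics database, and only arrays with an available protein sequence were kept. Glycan names were put into IUPAC-condensed notation, and columns mapping to the same glycan were averaged. The binding signal is a within-array Z-score, averaged across arrays of one protein sequence run at different concentrations or buffers and across linkers. A negative Z-score can be read as non-binding.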

[2] = biological target: GlcNAc(b1-2)Man(a1-3)[GlcNAc(b1-2)Man(a1-6)]Man(b1-4)GlcNAc(b1-4)GlcNAc
Outline: as §1

[3] = biological target: GlcNAc(b1-2)Man(a1-3)[GlcNAc(b1-2)Man(a1-6)]Man(b1-4)GlcNAc(b1-4)[Fuc(a1-6)]GlcNAc
Outline: as §1

[4] = biological target: GlcNAc(b1-2)Man(a1-3)[GlcNAc(b1-4)][GlcNAc(b1-2)Man(a1-6)]Man(b1-4)GlcNAc(b1-4)GlcNAc
Outline: as §1

[5] = biological target: GlcNAc(b1-2)Man(a1-3)[GlcNAc(b1-4)][GlcNAc(b1-2)Man(a1-6)]Man(b1-4)GlcNAc(b1-4)[Fuc(a1-6)]GlcNAc
Outline: as §1

[6] = biological target: GlcNAc(b1-2)[GlcNAc(b1-4)]Man(a1-3)[GlcNAc(b1-2)Man(a1-6)]Man(b1-4)GlcNAc(b1-4)GlcNAc
Outline: as §1

[7] = biological target: GlcNAc(b1-2)[GlcNAc(b1-4)]Man(a1-3)[GlcNAc(b1-4)][GlcNAc(b1-2)Man(a1-6)]Man(b1-4)GlcNAc(b1-4)GlcNAc
Outline: as §1

[8] = biological target: GlcNAc(b1-2)[GlcNAc(b1-4)]Man(a1-3)[GlcNAc(b1-4)][GlcNAc(b1-2)[GlcNAc(b1-6)]Man(a1-6)]Man(b1-4)GlcNAc(b1-4)GlcNAc
Outline: as §1

[9] = biological target: GlcNAc(b1-2)[GlcNAc(b1-4)]Man(a1-3)[GlcNAc(b1-4)][GlcNAc(b1-2)[GlcNAc(b1-6)]Man(a1-6)]Man(b1-4)GlcNAc(b1-4)[Fuc(a1-6)]GlcNAc
Outline: as §1

[10] = biological target: GlcNAc(b1-2)[GlcNAc(b1-6)]Man(a1-6)[GlcNAc(b1-2)Man(a1-3)]Man(b1-4)GlcNAc(b1-4)GlcNAc
Outline: as §1

[11] = biological target: GlcNAc(b1-2)[GlcNAc(b1-6)]Man(a1-6)[GlcNAc(b1-2)Man(a1-3)]Man(b1-4)GlcNAc(b1-4)[Fuc(a1-6)]GlcNAc
Outline: as §1

[12] = biological target: GlcNAc(b1-2)[GlcNAc(b1-6)]Man(a1-6)[GlcNAc(b1-4)][GlcNAc(b1-2)Man(a1-3)]Man(b1-4)GlcNAc(b1-4)GlcNAc
Outline: as §1

[13] = biological target: GlcNAc(b1-3)Fuc
Outline: as §1

[14] = biological target: GlcNAc(b1-3)Gal
Outline: as §1

[15] = biological target: GlcNAc(b1-3)Gal(b1-3)GalNAc
Outline: as §1

[16] = biological target: GlcNAc(b1-3)Gal(b1-4)Glc
Outline: as §1

[17] = biological target: GlcNAc(b1-3)Gal(b1-4)GlcNAc
Outline: as §1

[18] = biological target: GlcNAc(b1-3)Gal(b1-4)GlcNAc(b1-2)Man(a1-3)[GlcNAc(b1-3)Gal(b1-4)GlcNAc(b1-2)Man(a1-6)]Man(b1-4)GlcNAc(b1-4)GlcNAc
Outline: as §1

[19] = biological target: GlcNAc(b1-3)Gal(b1-4)GlcNAc(b1-2)Man(a1-3)[GlcNAc(b1-3)Gal(b1-4)GlcNAc(b1-2)Man(a1-6)]Man(b1-4)GlcNAc(b1-4)[Fuc(a1-6)]GlcNAc
Outline: as §1

[20] = biological target: GlcNAc(b1-3)Gal(b1-4)GlcNAc(b1-2)[GlcNAc(b1-3)Gal(b1-4)GlcNAc(b1-6)]Man(a1-6)[GlcNAc(b1-3)Gal(b1-4)GlcNAc(b1-2)Man(a1-3)]Man(b1-4)GlcNAc(b1-4)GlcNAc
Outline: as §1

[21] = biological target: GlcNAc(b1-3)Gal(b1-4)GlcNAc(b1-3)Gal(b1-4)GlcNAc
Outline: as §1

[22] = biological target: GlcNAc(b1-3)Gal(b1-4)GlcNAc(b1-3)Gal(b1-4)GlcNAc(b1-2)Man(a1-3)[GlcNAc(b1-3)Gal(b1-4)GlcNAc(b1-3)Gal(b1-4)GlcNAc(b1-2)Man(a1-6)]Man(b1-4)GlcNAc(b1-4)GlcNAc
Outline: as §1

[23] = biological target: GlcNAc(b1-3)Gal(b1-4)GlcNAc(b1-3)Gal(b1-4)GlcNAc(b1-2)Man(a1-3)[GlcNAc(b1-3)Gal(b1-4)GlcNAc(b1-3)Gal(b1-4)GlcNAc(b1-2)Man(a1-6)]Man(b1-4)GlcNAc(b1-4)[Fuc(a1-6)]GlcNAc
Outline: as §1

[24] = biological target: GlcNAc(b1-3)Gal(b1-4)GlcNAc(b1-3)Gal(b1-4)GlcNAc(b1-2)[GlcNAc(b1-3)Gal(b1-4)GlcNAc(b1-3)Gal(b1-4)GlcNAc(b1-6)]Man(a1-6)[GlcNAc(b1-3)Gal(b1-4)GlcNAc(b1-3)Gal(b1-4)GlcNAc(b1-2)Man(a1-3)]Man(b1-4)GlcNAc(b1-4)[Fuc(a1-6)]GlcNAc
Outline: as §1

[25] = biological target: GlcNAc(b1-3)Gal(b1-4)GlcNAc(b1-3)Gal(b1-4)GlcNAc(b1-3)Gal(b1-4)GlcNAc(b1-2)Man(a1-3)[GlcNAc(b1-3)Gal(b1-4)GlcNAc(b1-3)Gal(b1-4)GlcNAc(b1-3)Gal(b1-4)GlcNAc(b1-2)Man(a1-6)]Man(b1-4)GlcNAc(b1-4)GlcNAc
Outline: as §1

[26] = biological target: GlcNAc(b1-3)Gal(b1-4)GlcNAc(b1-3)Gal(b1-4)GlcNAc(b1-3)Gal(b1-4)GlcNAc(b1-2)Man(a1-3)[GlcNAc(b1-3)Gal(b1-4)GlcNAc(b1-3)Gal(b1-4)GlcNAc(b1-3)Gal(b1-4)GlcNAc(b1-2)Man(a1-6)]Man(b1-4)GlcNAc(b1-4)[Fuc(a1-6)]GlcNAc
Outline: as §1

[27] = biological target: GlcNAc(b1-3)Gal(b1-4)GlcNAc(b1-3)Gal(b1-4)GlcNAc(b1-3)Gal(b1-4)GlcNAc(b1-2)[GlcNAc(b1-3)Gal(b1-4)GlcNAc(b1-3)Gal(b1-4)GlcNAc(b1-3)Gal(b1-4)GlcNAc(b1-6)]Man(a1-6)[GlcNAc(b1-3)Gal(b1-4)GlcNAc(b1-3)Gal(b1-4)GlcNAc(b1-3)Gal(b1-4)GlcNAc(b1-2)Man(a1-3)]Man(b1-4)GlcNAc(b1-4)[Fuc(a1-6)]GlcNAc
Outline: as §1

[28] = biological target: GlcNAc(b1-3)Gal(b1-4)GlcNAc(b1-3)Gal(b1-4)GlcNAc(b1-3)Gal(b1-4)GlcNAc(b1-3)Gal(b1-4)GlcNAc(b1-2)Man(a1-3)[GlcNAc(b1-3)Gal(b1-4)GlcNAc(b1-3)Gal(b1-4)GlcNAc(b1-3)Gal(b1-4)GlcNAc(b1-3)Gal(b1-4)GlcNAc(b1-2)Man(a1-6)]Man(b1-4)GlcNAc(b1-4)GlcNAc
Outline: as §1

[29] = biological target: GlcNAc(b1-3)Gal(b1-4)GlcNAc(b1-3)Gal(b1-4)GlcNAc(b1-3)Gal(b1-4)GlcNAc(b1-3)Gal(b1-4)GlcNAc(b1-2)Man(a1-3)[GlcNAc(b1-3)Gal(b1-4)GlcNAc(b1-3)Gal(b1-4)GlcNAc(b1-3)Gal(b1-4)GlcNAc(b1-3)Gal(b1-4)GlcNAc(b1-2)Man(a1-6)]Man(b1-4)GlcNAc(b1-4)[Fuc(a1-6)]GlcNAc
Outline: as §1

[30] = biological target: GlcNAc(b1-3)Gal(b1-4)GlcNAc(b1-3)Gal(b1-4)GlcNAc(b1-3)Gal(b1-4)GlcNAc(b1-3)Gal(b1-4)GlcNAc(b1-2)[GlcNAc(b1-3)Gal(b1-4)GlcNAc(b1-3)Gal(b1-4)GlcNAc(b1-3)Gal(b1-4)GlcNAc(b1-3)Gal(b1-4)GlcNAc(b1-6)]Man(a1-6)[GlcNAc(b1-3)Gal(b1-4)GlcNAc(b1-3)Gal(b1-4)GlcNAc(b1-3)Gal(b1-4)GlcNAc(b1-3)Gal(b1-4)GlcNAc(b1-2)Man(a1-3)]Man(b1-4)GlcNAc(b1-4)[Fuc(a1-6)]GlcNAc
Outline: as §1

[31] = biological target: GlcNAc(b1-3)Gal(b1-4)GlcNAc(b1-3)Gal(b1-4)GlcNAc(b1-3)GalNAc
Outline: as §1

[32] = biological target: GlcNAc(b1-3)Gal(b1-4)GlcNAc(b1-3)GalNAc
Outline: as §1

[33] = biological target: GlcNAc(b1-3)Gal(b1-4)GlcNAc(b1-3)[GlcNAc(b1-3)Gal(b1-4)GlcNAc(b1-3)]GalNAc
Outline: as §1

[34] = biological target: GlcNAc(b1-3)Gal(b1-4)GlcNAc(b1-6)[Gal(b1-3)]GalNAc
Outline: as §1

[35] = biological target: GlcNAc(b1-3)Gal(b1-4)GlcNAc(b1-6)[GlcNAc(b1-3)Gal(b1-3)]GalNAc
Outline: as §1

[36] = biological target: GlcNAc(b1-3)Gal(b1-4)GlcNAc(b1-6)[GlcNAc(b1-3)]Gal(b1-4)GlcNAc
Outline: as §1

[37] = biological target: GlcNAc(b1-3)GalNAc
Outline: as §1

[38] = biological target: GlcNAc(b1-3)Man
Outline: as §1

[39] = biological target: GlcNAc(b1-3)[GlcNAc(b1-4)][GlcNAc(b1-6)]GlcNAc
Outline: as §1

[40] = biological target: GlcNAc(b1-3)[GlcNAc(b1-6)]Gal(b1-4)GlcNAc
Outline: as §1

[41] = biological target: GlcNAc(b1-3)[GlcNAc(b1-6)]GalNAc
Outline: as §1

[42] = biological target: GlcNAc(b1-4)Gal(b1-4)GlcNAc
Outline: as §1

[43] = biological target: GlcNAc(b1-4)GlcNAc
Outline: as §1

[44] = biological target: GlcNAc(b1-4)GlcNAc(b1-4)GlcNAc
Outline: as §1

[45] = biological target: GlcNAc(b1-4)GlcNAc(b1-4)GlcNAc(b1-4)GlcNAc(b1-4)GlcNAc
Outline: as §1

B1: LecB LY19 (Pseudomonas aeruginosa) (protein)
chain: MATQGVFTLPANTQFGVTAFANSAGTQTVNVQVNNETVATFTGQSTNNGIIGSKVLNSGGGGKVQILVSVNGRSSDLVSAQVILANELNFALVGSEDSTDNDYNDAVVVINWPLG
[1]
  glycan array binding signal (z-score): -0.544
[2]
  glycan array binding signal (z-score): 0.742
[3]
  glycan array binding signal (z-score): -0.064
[4]
  glycan array binding signal (z-score): -0.547
[5]
  glycan array binding signal (z-score): 0.369
[6]
  glycan array binding signal (z-score): -0.398
[7]
  glycan array binding signal (z-score): -0.556
[8]
  glycan array binding signal (z-score): -0.554
[9]
  glycan array binding signal (z-score): 0.427
[10]
  glycan array binding signal (z-score): -0.465
[11]
  glycan array binding signal (z-score): 1.66
[12]
  glycan array binding signal (z-score): -0.546
[13]
  glycan array binding signal (z-score): 0.405
[14]
  glycan array binding signal (z-score): -0.54
[15]
  glycan array binding signal (z-score): -0.542
[16]
  glycan array binding signal (z-score): -0.553
[17]
  glycan array binding signal (z-score): -0.558
[18]
  glycan array binding signal (z-score): -0.538
[19]
  glycan array binding signal (z-score): 0.753
[20]
  glycan array binding signal (z-score): -0.401
[21]
  glycan array binding signal (z-score): -0.552
[22]
  glycan array binding signal (z-score): -0.529
[23]
  glycan array binding signal (z-score): 0.644
[24]
  glycan array binding signal (z-score): 0.123
[25]
  glycan array binding signal (z-score): -0.489
[26]
  glycan array binding signal (z-score): 0.623
[27]
  glycan array binding signal (z-score): 0.032
[28]
  glycan array binding signal (z-score): -0.489
[29]
  glycan array binding signal (z-score): 0.887
[30]
  glycan array binding signal (z-score): 0.196
[31]
  glycan array binding signal (z-score): -0.542
[32]
  glycan array binding signal (z-score): -0.556
[33]
  glycan array binding signal (z-score): -0.531
[34]
  glycan array binding signal (z-score): -0.558
[35]
  glycan array binding signal (z-score): -0.549
[36]
  glycan array binding signal (z-score): -0.549
[37]
  glycan array binding signal (z-score): -0.547
[38]
  glycan array binding signal (z-score): -0.482
[39]
  glycan array binding signal (z-score): -0.544
[40]
  glycan array binding signal (z-score): -0.551
[41]
  glycan array binding signal (z-score): -0.553
[42]
  glycan array binding signal (z-score): -0.541
[43]
  glycan array binding signal (z-score): -0.543
[44]
  glycan array binding signal (z-score): -0.549
[45]
  glycan array binding signal (z-score): -0.544
